Source: PMC12820563, “FoxP3 forms a head-to-head dimer in vivo and stabilizes its multimerization on adjacent microsatellites”
This is one part of the list.

Target: T1, MBP-FoxP1dN (Mus musculus, UniProt P58462 326-579)
T1 sequence: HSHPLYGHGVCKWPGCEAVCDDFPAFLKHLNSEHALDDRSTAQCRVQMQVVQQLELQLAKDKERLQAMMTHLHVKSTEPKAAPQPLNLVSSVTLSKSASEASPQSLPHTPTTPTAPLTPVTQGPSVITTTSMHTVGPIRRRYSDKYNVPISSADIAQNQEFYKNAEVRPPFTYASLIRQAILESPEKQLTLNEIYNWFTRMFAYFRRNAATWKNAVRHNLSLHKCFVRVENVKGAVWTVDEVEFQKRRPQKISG
Experiment: PD-seq (MBP pull-down with sequencing); 20 mM Tris-HCl pH 7.5, 100 mM NaCl, 1.5 mM MgCl2, 0.4 uM protein, 0.1 uM dsDNA library, 30 min, room temperature, amylose pull-down; high values mean tight binding
Details: protein: recombinant; tags: His6-MBP; chain copies: 2; dsDNA, one strand shown
Method in brief: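 Amylose resin was used to capture complexes formed during 30 min at room temperature in Tris pH 7.5 buffer with NaCl and MgCl2 between 0.4 µM His6-MBP-tagged mouse FoxP3 or FoxP1 fragment lacking the N-terminus, expressed in E. coli, and 0.1 µM Klenow-filled double-stranded degenerate DNA library. After three washes, the DNA was released with proteinase K, barcoded by PCR and sequenced on Illumina. Binding is pooled-replicate reads-per-million enrichment, pull-down over input.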

Going from “GATGATTGTTCTCCCAGCTGATGAATTTGAGACCTCGAGTAAACAAATTTTCCTAATCTTTCTGTTCAAGCGCCATCTAC” to “GATGATTGTTCTCCCAGCTGATGAATTAGGGATATCGAGTAAACAAATTTTCCTAATCTTTCTGTTCAAGCGCCATCTAC”, the binding signal rises from 0.757 RPM ratio (pull-down/input) to 0.862 RPM ratio (pull-down/input).

First: GATGATTGTTCTCCCAGCTGATGAATTGGGTAGTTCGAGTAAACAAATTTTCCTAATCTTTCTGTTCAAGCGCCATCTAC
Second: GATGATTGTTCTCCCAGCTGATGAATTAAGCTGATCGAGTAAACAAATTTTCCTAATCTTTCTGTTCAAGCGCCATCTAC
The binding signal of the first is higher: 0.859 RPM ratio (pull-down/input) for the first, 0.849 RPM ratio (pull-down/input) for the second.

First: GATGATTGTTCTCCCAGCTGATGAATTCTACCACTCGAGTAAACAAATTTTCCTAATCTTTCTGTTCAAGCGCCATCTAC
Second: GATGATTGTTCTCCCAGCTGATGAATTAAACAGATCGAGTAAACAAATTTTCCTAATCTTTCTGTTCAAGCGCCATCTAC
The binding signal of the first is lower: 0.884 RPM ratio (pull-down/input) for the first, 1.27 RPM ratio (pull-down/input) for the second.

Going from “GATGATTGTTCTCCCAGCTGATGAATTAGGCATATCGAGTAAACAAATTTTCCTAATCTTTCTGTTCAAGCGCCATCTAC” to “GATGATTGTTCTCCCAGCTGATGAATTGCTAACCTCGAGTAAACAAATTTTCCTAATCTTTCTGTTCAAGCGCCATCTAC”, the binding signal rises from 0.996 RPM ratio (pull-down/input) to 1.06 RPM ratio (pull-down/input).

Compared with “GATGATTGTTCTCCCAGCTGATGAATTTAAATAGTCGAGTAAACAAATTTTCCTAATCTTTCTGTTCAAGCGCCATCTAC”, “GATGATTGTTCTCCCAGCTGATGAATTTGACTCATCGAGTAAACAAATTTTCCTAATCTTTCTGTTCAAGCGCCATCTAC” is lower in binding signal: 0.966 RPM ratio (pull-down/input) for the first, 0.878 RPM ratio (pull-down/input) for the second.

Going from “GATGATTGTTCTCCCAGCTGATGAATTGCGAGTCTCGAGTAAACAAATTTTCCTAATCTTTCTGTTCAAGCGCCATCTAC” to “GATGATTGTTCTCCCAGCTGATGAATTAATAGACTCGAGTAAACAAATTTTCCTAATCTTTCTGTTCAAGCGCCATCTAC”, the binding signal falls from 0.957 RPM ratio (pull-down/input) to 0.876 RPM ratio (pull-down/input).

Going from “GATGATTGTTCTCCCAGCTGATGAATTCACGGAATCGAGTAAACAAATTTTCCTAATCTTTCTGTTCAAGCGCCATCTAC” to “GATGATTGTTCTCCCAGCTGATGAATTGAGACCTTCGAGTAAACAAATTTTCCTAATCTTTCTGTTCAAGCGCCATCTAC”, the binding signal falls from 0.964 RPM ratio (pull-down/input) to 0.859 RPM ratio (pull-down/input).

First: GATGATTGTTCTCCCAGCTGATGAATTTGACTAATCGAGTAAACAAATTTTCCTAATCTTTCTGTTCAAGCGCCATCTAC
Second: GATGATTGTTCTCCCAGCTGATGAATTTTTACGGTCGAGTAAACAAATTTTCCTAATCTTTCTGTTCAAGCGCCATCTAC
The binding signal of the first is higher: 0.952 RPM ratio (pull-down/input) for the first, 0.896 RPM ratio (pull-down/input) for the second.

First: GATGATTGTTCTCCCAGCTGATGAATTATAGGTTTCGAGTAAACAAATTTTCCTAATCTTTCTGTTCAAGCGCCATCTAC
Second: GATGATTGTTCTCCCAGCTGATGAATTCGTGATCTCGAGTAAACAAATTTTCCTAATCTTTCTGTTCAAGCGCCATCTAC
The binding signal of the first is higher: 0.92 RPM ratio (pull-down/input) for the first, 0.884 RPM ratio (pull-down/input) for the second.

Going from “GATGATTGTTCTCCCAGCTGATGAATTTAGCAACTCGAGTAAACAAATTTTCCTAATCTTTCTGTTCAAGCGCCATCTAC” to “GATGATTGTTCTCCCAGCTGATGAATTCACCAGCTCGAGTAAACAAATTTTCCTAATCTTTCTGTTCAAGCGCCATCTAC”, the binding signal falls from 1.06 RPM ratio (pull-down/input) to 0.809 RPM ratio (pull-down/input).

Going from “GATGATTGTTCTCCCAGCTGATGAATTCAATGACTCGAGTAAACAAATTTTCCTAATCTTTCTGTTCAAGCGCCATCTAC” to “GATGATTGTTCTCCCAGCTGATGAATTCGTGAAGTCGAGTAAACAAATTTTCCTAATCTTTCTGTTCAAGCGCCATCTAC”, the binding signal falls from 0.877 RPM ratio (pull-down/input) to 0.804 RPM ratio (pull-down/input).

Compared with “GATGATTGTTCTCCCAGCTGATGAATTGTGAAACTCGAGTAAACAAATTTTCCTAATCTTTCTGTTCAAGCGCCATCTAC”, “GATGATTGTTCTCCCAGCTGATGAATTGTATGAGTCGAGTAAACAAATTTTCCTAATCTTTCTGTTCAAGCGCCATCTAC” is lower in binding signal: 1.1 RPM ratio (pull-down/input) for the first, 1.02 RPM ratio (pull-down/input) for the second.

Compared with “GATGATTGTTCTCCCAGCTGATGAATTTTGTGAGTCGAGTAAACAAATTTTCCTAATCTTTCTGTTCAAGCGCCATCTAC”, “GATGATTGTTCTCCCAGCTGATGAATTTCGCGAGTCGAGTAAACAAATTTTCCTAATCTTTCTGTTCAAGCGCCATCTAC” is lower in binding signal: 1.13 RPM ratio (pull-down/input) for the first, 0.752 RPM ratio (pull-down/input) for the second.

Compared with “GATGATTGTTCTCCCAGCTGATGAATTTGGTGGCTCGAGTAAACAAATTTTCCTAATCTTTCTGTTCAAGCGCCATCTAC”, “GATGATTGTTCTCCCAGCTGATGAATTTCGACGGTCGAGTAAACAAATTTTCCTAATCTTTCTGTTCAAGCGCCATCTAC” is lower in binding signal: 0.864 RPM ratio (pull-down/input) for the first, 0.762 RPM ratio (pull-down/input) for the second.

First: GATGATTGTTCTCCCAGCTGATGAATTTGAAGAGTCGAGTAAACAAATTTTCCTAATCTTTCTGTTCAAGCGCCATCTAC
Second: GATGATTGTTCTCCCAGCTGATGAATTCAGTTATTCGAGTAAACAAATTTTCCTAATCTTTCTGTTCAAGCGCCATCTAC
The binding signal of the first is lower: 0.785 RPM ratio (pull-down/input) for the first, 1.03 RPM ratio (pull-down/input) for the second.

For “GATGATTGTTCTCCCAGCTGATGAATTGTCAACGTCGAGTAAACAAATTTTCCTAATCTTTCTGTTCAAGCGCCATCTAC”, the binding signal was 1.26 RPM ratio (pull-down/input).
